Assay results taken from PubChem BioAssay AID686978 (National Center for Advancing Translational Sciences (NCATS), 2013).
The campaign covered roughly 420,000 compounds. About 64,000 (15%) were called active. Inconclusive means that the source gave no clear call. Such entries were picked first, then a sample of the others. Calls follow the shape of the dose curve; as a rule, active = well fitted inhibition curve with a large enough effect; inconclusive = small, poorly fitted or top-dose-only effect; inactive = flat fitted curve, though single readings scatter. No potency is given beside an inconclusive call; the fits are too rough.

experiment: qHTS for Inhibitors of human tyrosyl-DNA phosphodiesterase 1 (TDP1): qHTS in cells in absence of CPT; settings: DT40 Tdp1-/- hTDP1 cells, no CPT, ATP luminescence, 48 h; activity change, negative = growth inhibition: at 46.2 µM (top of the series); also: nearly all actives have a fitted effect of over 55% in size
Outline: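 Cells were dispensed at 400 per well, compounds added by pin tool, plates incubated ≥48 hr at 37 °C, then CellTiter-Glo added for 30 min at room temperature before luminescence reading. Line: DT40 Tdp1-/- complemented with hTDP1; camptothecin omitted.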
% is scaled to controls: 0 for no effect and ±100 for the full control effect; potency is read from the fitted curve at half-maximal effect; tags tell the direction and shape of the fitted curve.

Row | SMILES | Potency | activity change, negative = growth inhibition
1 | Cc1ccccc1OCc1cc(=O)n2c(-c3ccccc3)csc2n1 | inconclusive [inhibitor, single point] | –
2 | CCOC(=O)Nc1ccc2c(c1)N(C(=O)CCN1CCN3CCCC3C1)c1ccccc1CC2 (stereo not drawn) | – | inactive: -18.2%
3 | COc1ccccc1N1CCN(CC(=O)c2c(C)[nH]c3ccccc23)CC1 | inconclusive [inhibitor, partial curve, poor fit] | –
4 | CC(C)n1c(SCC(=O)Nc2ccccc2N2CCOCC2)nc2c1c(=O)n(C)c(=O)n2C | inconclusive [inhibitor, single point] | –
5 | Cc1ccc(/C=C2/SC(=O)N(CC(=O)N3CCOCC3)C2=O)s1 | inconclusive [inhibitor, single point] | –
6 | COC(=O)c1ccc(NC(=S)NC(=O)c2c(-c3ccccc3)noc2C)cc1 | – | inactive: -3.82%
7 | CCOc1ccc(C(=O)N2CCC(C(=O)c3ccc4c(c3)OCCO4)CC2)cc1 | inconclusive [inhibitor, partial curve] | –
8 | COc1cc2c(cc1OC)CN(CC(=O)Nc1cccc(C(F)(F)F)c1)CC2 | inconclusive [inhibitor, single point] | –
9 | O=C(Nc1cc(Cl)ccc1N1CCCC1)C1=NN(c2ccccc2)C(=O)CC1 | inconclusive [inhibitor, single point] | –
10 | COc1ccc(Cl)cc1NC(=O)c1cnc(SC)nc1-c1ccccc1 | inconclusive [inhibitor, single point] | –
11 | CCOc1ccc(Nc2nc(C)c(NC(=O)c3ccc(C)cc3)c(Nc3ccc(OCC)cc3)n2)cc1 | active: 2.59 µM | –
12 | CCOc1cc(N2CCOCC2)c(OCC)cc1NC(=O)COC(=O)c1c(CC)noc1C | inconclusive [inhibitor, single point] | –
13 | OCC[C@H]1C[C@H](O)[C@@H](O)[C@@]2(CCCO2)O1 | – | inactive: -7.45%
14 | CCCCCCCCN1C(=O)[C@H](CC(=O)NCCC(C)C)C[C@@]2(C(=O)OCC)CCC=C12 | active: 20.6 µM | –
15 | Cc1ccc(NC(=O)Nc2ccc3c(c2)N(C)C(=O)CS3)nc1 | inconclusive [inhibitor, single point] | –
16 | CCCN1CCN(CCCNC(=O)c2ccc3c(c2)NC(=O)c2ccccc2S3)CC1 | – | inactive: -17.2%
17 | Cc1nnc(SCCn2c(N3CCC(C)CC3)nc3c2c(=O)n(C)c(=O)n3C)s1 | inconclusive [inhibitor, partial curve] | –
18 | CCc1ccccc1NC(=S)N1CCCCCC1 | inconclusive [inhibitor, single point] | –
